Screen size: about 45,000 compounds; about 200 (0.44%) were called active. Inconclusive results (about 7%) are left out. Calls follow the shape of the dose curve; as a rule, active = well fitted activation curve with a large enough effect; inconclusive = small, poorly fitted or top-dose-only effect; inactive = no such curve, though single readings can be large or run the other way. The list shows a part of the results.
Test: qHTS of TDP-43 Inhibitors: NCGC Sytravon Library Screen; also: nearly all actives have a fitted effect of over 55% in size; as to growth rescue (activation): 0% is about no effect
Details: yeast TDP-43 toxicity rescue, BacTiter-Glo growth, 24 h; series mostly up to 46.1 µM; growth rescue (activation): at the top concentration
Outline: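 TDP-43-expressing yeast, pregrown in raffinose, seeded at OD600 0.02 in galactose medium with compound for 24 hr at 30 deg C. Growth read by BacTiter-Glo luminescence, so rescue of toxicity appears as activation.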
Potency is read from the fitted curve at half-maximal effect.

| Structure (SMILES) | growth rescue (activation) | Potency |
| --- | --- | --- |
| CC(C)[C@H](NS(=O)(=O)c1ccccc1)C(=O)OCC(=O)Nc1cccc(S(N)(=O)=O)c1 | inactive: 13.5% | – |
| COc1ccccc1C(=O)NCCC(=O)NCC1CCCCC1 | inactive: 16.6% | – |
| CC(C)(C)c1ccc2c(c1)N(CC(=O)N1CCOCC1)C(=O)CO2 | inactive: 5.53% | – |
| O=C(CSc1n[nH]c(-c2ccco2)n1)Nc1ccccc1F | inactive: 4.06% | – |
| COc1ccc(CNC(=O)Nc2nnc([C@H]3C[C@H](O)[C@@H](CO)O3)s2)cc1 | inactive: -7.71% | – |
| CCc1cccc(NC(=O)Nc2ccc3c(c2)OCO3)c1 | inactive: 11.1% | – |
| O=C(Nc1cnn(Cc2ccc(F)cc2)c1)c1cnn2c(C(F)F)cc(-c3ccccc3)nc12 | inactive: -1.51% | – |
| CC1(C(=O)Nc2ccc3c(c2)OCCO3)CCN1C(=O)C1(c2ccc(Cl)cc2)CCC1 (stereo not drawn) | inactive: 23.1% | – |
| COc1ccc(OC)c(S(=O)(=O)n2ccc(C)n2)c1 | inactive: -0.908% | – |
| O=C(NC(=S)NCc1ccc(-c2nc3ccccc3s2)cc1)c1ccco1 | inactive: -0.007% | – |
| CNC(=S)N(CCc1ccc(OC)c(OC)c1)Cc1cc2c(C)cc(C)cc2[nH]c1=O | inactive: 5.2% | – |
| Cc1ccc(S(=O)(=O)Nc2nc(-c3ccc(F)cc3)cs2)cc1 | inactive: -13.3% | – |
| S=c1[nH]nc(-c2cc(-c3ccccc3)n[nH]2)n1/N=C/c1ccc(Cl)cc1 | inactive: 13.7% | – |
| COc1ccc(C(=O)Nc2ccc(C(=O)NCCc3ccccc3)cc2)cc1 | inactive: -5.04% | – |
| COc1cccc(NC(=O)COC(=O)C2=NN(c3ccccc3)C(=O)CC2)c1 | inactive: 18.4% | – |
| COc1cccc(-c2cnc(C(O)c3ccc(C)cc3)[nH]2)c1 (stereo not drawn) | inactive: -5.13% | – |
| COc1ccccc1CNC(=O)C(NS(=O)(=O)c1ccc2c(c1)OCCO2)C(C)C (stereo not drawn) | inactive: 9.61% | – |
| COc1ccc(CC(=O)N2CCN(c3ccccc3OC)CC2)cc1 | inactive: -3.07% | – |
| CC(C)c1ccc(NC(=O)NN2CCOCC2)cc1 | inactive: -10.2% | – |
| Cc1cc(=O)[nH]c(SCC(=O)NCCC2=CCCCC2)n1 | inactive: -4.43% | – |
| Cc1ccc(C2CC(c3cccs3)=NN2C(=O)CCl)cc1 (stereo not drawn) | – | active: 12.6 µM |
| CCN(CC)C(=O)Cn1cnc2sc(C(=O)N3CCN(c4ccc(F)cc4)CC3)c(C)c2c1=O | inactive: 8.19% | – |
| O=C(Nc1nc2ccc(S(=O)(=O)N3CCOCC3)cc2s1)c1cccs1 | inactive: 8.49% | – |
| Cn1c(=O)c2c(nc(N/N=C/c3cccnc3)n2Cc2ccc(F)cc2)n(C)c1=O | inactive: 12.9% | – |
| CC(C)C(NC(=O)c1ccc(C(C)(C)C)cc1)C(=O)N1CCCC1 (stereo not drawn) | inactive: 5.18% | – |
| CCOC(=O)c1sc(NC(=O)c2ccc(S(=O)(=O)N3CCCCC3)cc2)nc1-c1ccccc1 | inactive: 27.3% | – |
| O=C(Nc1ccccc1Cl)Nc1ccccc1Cl | inactive: 32.3% | – |
| CCC(CC)N1CCN(Cc2nc3ccc([N+](=O)[O-])cc3c(=O)n2-c2ccccc2F)CC1 | inactive: 10.7% | – |
